Measurements as given in the supplement of paper PMC8728848.
The other results are listed elsewhere or left out.

Experiments:
Assay in all cases: glycan array binding signal (z-score within array); higher = stronger binding
Conditions in all cases: glycan notation: IUPAC condensed, linker removed
[1] = target: Fuc(a1-2)[Gal(a1-3)]Gal(b1-4)GlcNAc(b1-2)Man(a1-3)[Fuc(a1-2)[Gal(a1-3)]Gal(b1-4)GlcNAc(b1-2)Man(a1-6)]Man(b1-4)GlcNAc(b1-4)[Fuc(a1-6)]GlcNAc
Procedure, shortened: (§1)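 The binding signal is a Z-score computed within each array and averaged over linkers. Arrays of the same protein sequence at different concentrations or buffers were also averaged together. Data originate from 3228 arrays in the Consortium for Functional Glycomics database, kept only where the protein sequence was available.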

[2] = target: Fuc(a1-2)[Gal(a1-3)]Gal(b1-4)GlcNAc(b1-3)GalNAc
Procedure, shortened: as §1

[3] = target: Fuc(a1-2)[Gal(a1-3)]Gal(b1-4)GlcNAc(b1-3)[Fuc(a1-2)[Gal(a1-3)]Gal(b1-4)GlcNAc(b1-6)]GalNAc
Procedure, shortened: as §1

[4] = target: Fuc(a1-2)[Gal(a1-3)]Gal(b1-4)GlcNAc(b1-6)GalNAc
Procedure, shortened: as §1

[5] = target: Fuc(a1-2)[Gal(a1-3)]Gal(b1-4)[Fuc(a1-3)]Glc
Procedure, shortened: as §1

[6] = target: Fuc(a1-2)[Gal(a1-3)]Gal(b1-4)[Fuc(a1-3)]GlcNAc
Procedure, shortened: as §1

[7] = target: Fuc(a1-2)[Gal(a1-3)]Gal(b1-4)[Fuc(a1-3)]GlcNAc(b1-3)GalNAc
Procedure, shortened: as §1

[8] = target: Fuc(a1-2)[Gal(a1-4)]Gal(b1-4)GlcNAc
Procedure, shortened: as §1

[9] = target: Fuc(a1-2)[GalNAc(a1-3)]Gal
Procedure, shortened: as §1

[10] = target: Fuc(a1-2)[GalNAc(a1-3)]Gal(b1-3)GalNAc(a1-3)[Fuc(a1-2)]Gal(b1-4)GlcNAc
Procedure, shortened: as §1

[11] = target: Fuc(a1-2)[GalNAc(a1-3)]Gal(b1-3)GalNAc(b1-3)Gal(a1-4)Gal(b1-4)Glc
Procedure, shortened: as §1

[12] = target: Fuc(a1-2)[GalNAc(a1-3)]Gal(b1-3)GlcNAc
Procedure, shortened: as §1

[13] = target: Fuc(a1-2)[GalNAc(a1-3)]Gal(b1-3)GlcNAc(b1-2)Man(a1-3)[Fuc(a1-2)[GalNAc(a1-3)]Gal(b1-3)GlcNAc(b1-2)Man(a1-6)]Man(b1-4)GlcNAc(b1-4)GlcNAc
Procedure, shortened: as §1

[14] = target: Fuc(a1-2)[GalNAc(a1-3)]Gal(b1-3)GlcNAc(b1-2)Man(a1-3)[Fuc(a1-2)[GalNAc(a1-3)]Gal(b1-3)GlcNAc(b1-2)Man(a1-6)]Man(b1-4)GlcNAc(b1-4)[Fuc(a1-6)]GlcNAc
Procedure, shortened: as §1

[15] = target: Fuc(a1-2)[GalNAc(a1-3)]Gal(b1-3)GlcNAc(b1-3)GalNAc
Procedure, shortened: as §1

[16] = target: Fuc(a1-2)[GalNAc(a1-3)]Gal(b1-3)GlcNAc(b1-6)GalNAc
Procedure, shortened: as §1

[17] = target: Fuc(a1-2)[GalNAc(a1-3)]Gal(b1-4)Glc
Procedure, shortened: as §1

[18] = target: Fuc(a1-2)[GalNAc(a1-3)]Gal(b1-4)GlcNAc
Procedure, shortened: as §1

[19] = target: Fuc(a1-2)[GalNAc(a1-3)]Gal(b1-4)GlcNAc(b1-2)Man
Procedure, shortened: as §1

[20] = target: Fuc(a1-2)[GalNAc(a1-3)]Gal(b1-4)GlcNAc(b1-2)Man(a1-3)[Fuc(a1-2)[GalNAc(a1-3)]Gal(b1-4)GlcNAc(b1-2)Man(a1-6)]Man(b1-4)GlcNAc(b1-4)GlcNAc
Procedure, shortened: as §1

[21] = target: Fuc(a1-2)[GalNAc(a1-3)]Gal(b1-4)GlcNAc(b1-2)Man(a1-3)[Fuc(a1-2)[GalNAc(a1-3)]Gal(b1-4)GlcNAc(b1-2)Man(a1-6)]Man(b1-4)GlcNAc(b1-4)[Fuc(a1-6)]GlcNAc
Procedure, shortened: as §1

[22] = target: Fuc(a1-2)[GalNAc(a1-3)]Gal(b1-4)GlcNAc(b1-3)Gal(b1-4)GlcNAc
Procedure, shortened: as §1

[23] = target: Fuc(a1-2)[GalNAc(a1-3)]Gal(b1-4)GlcNAc(b1-3)Gal(b1-4)GlcNAc(b1-3)Gal(b1-4)GlcNAc
Procedure, shortened: as §1

[24] = target: Fuc(a1-2)[GalNAc(a1-3)]Gal(b1-4)GlcNAc(b1-3)GalNAc
Procedure, shortened: as §1

[25] = target: Fuc(a1-2)[GalNAc(a1-3)]Gal(b1-4)GlcNAc(b1-3)[Fuc(a1-2)[GalNAc(a1-3)]Gal(b1-4)GlcNAc(b1-6)]GalNAc
Procedure, shortened: as §1

[26] = target: Fuc(a1-2)[GalNAc(a1-3)]Gal(b1-4)GlcNAc(b1-6)GalNAc
Procedure, shortened: as §1

[27] = target: Fuc(a1-2)[GalNAc(a1-3)]Gal(b1-4)[Fuc(a1-3)]GlcNAc
Procedure, shortened: as §1

[28] = target: Fuc(a1-2)[GalNAc(a1-3)]Gal(b1-4)[Fuc(a1-3)]GlcNAc(b1-3)GalNAc
Procedure, shortened: as §1

[29] = target: Fuc(a1-2)[GalNAc(a1-4)]Gal(b1-4)GlcNAc
Procedure, shortened: as §1

[30] = target: Fuc(a1-2)[GalNAc(b1-3)]Gal
Procedure, shortened: as §1

B1: BT3172pd (Bacteroides thetaiotaomicron) (protein)
chain: MLPLRAEHYYYKQISLKEGLPSNVRCILRDEQGFIWIGTKAGLGKFDGHQLKRYKHQANDPHSLLHNLIYQIAEDKQHNIWILTEKGIARYQQQSNNFTFPTDEEGNYITAYSFCLVPDGILFGGKDRIYKYSYKDSSLRLLQYFNANSFKITALSVWDSKTLLCCSRWTGLYLVDLQTGEHRRPPFDCGPEITSMITDSKNRIWIAPYSGGLRCYSRDGKLSASYTTHNSSLSNDIVLSLAEREEQLWIGTDGGGINILHPETGEISQLEYIPGRENYSLPANSILCLHNDYNNNVWAGSTCNGLISIREVSMKTYTDVVPGNDRGLSNGTVRSLYRQSPDSIWIGTDGGGINLFSPHTEKFTHYSSTWGDKVAFISGFTPGKLLISLFSKGVFVFNPATGEKQPFTIIDKETTTRLCNRGKSVNLYQNTPNTVLFLGDHIYQYHLKEKKFSTITEEEGKDIVGTLVPFDHQENLTYINDIKHIYELDDQTSRLKTVFECYTDTVISSVSHDEQGHFWIGSNFGLIHYDPVLKSRTLVPTNLFTEINMVLCDQKGKVWIGVDNMLFAYFIKEQKFVLFGESNGAIQNEYLPNARLVNEQGDAYIGGVKGMLRIDGQLLLNTSEMPELQLLDITINGESANHEWYNHPAKISVPWNSNISIRIMSREEDIFRQKIYRYQIEGLNNEYTESYNPELVIRSLLPGSYRIMASCTAKDGSWIPDQQVLELTVLPPWYRTHHHHHH
Q: Which results are given for B1?
A: glycan array binding signal (z-score) [1]: 0.347; glycan array binding signal (z-score) [2]: 0.073; glycan array binding signal (z-score) [3]: 5.41; glycan array binding signal (z-score) [4]: 0.696; glycan array binding signal (z-score) [5]: -0.351; glycan array binding signal (z-score) [6]: -0.177; glycan array binding signal (z-score) [7]: -0.194; glycan array binding signal (z-score) [8]: -0.179; glycan array binding signal (z-score) [9]: -0.426; glycan array binding signal (z-score) [10]: -0.445; glycan array binding signal (z-score) [11]: -0.219; glycan array binding signal (z-score) [12]: -0.389; glycan array binding signal (z-score) [13]: -0.51; glycan array binding signal (z-score) [14]: -0.47; glycan array binding signal (z-score) [15]: 0.729; glycan array binding signal (z-score) [16]: -0.21; glycan array binding signal (z-score) [17]: -0.491; glycan array binding signal (z-score) [18]: -0.511; glycan array binding signal (z-score) [19]: -0.645; glycan array binding signal (z-score) [20]: -0.17; glycan array binding signal (z-score) [21]: -0.192; glycan array binding signal (z-score) [22]: -0.68; glycan array binding signal (z-score) [23]: -0.443; glycan array binding signal (z-score) [24]: -0.142; glycan array binding signal (z-score) [25]: -0.046; glycan array binding signal (z-score) [26]: -0.622; glycan array binding signal (z-score) [27]: -0.482; glycan array binding signal (z-score) [28]: 0.04; glycan array binding signal (z-score) [29]: -0.521; glycan array binding signal (z-score) [30]: -0.655
